Results taken from the supplement of paper PMC8728848.
Some of the results follow.

Legend:
Test in all cases: glycan array binding signal (z-score within array); higher = stronger binding
Conditions in all cases: glycan notation: IUPAC condensed, linker removed
[1] = target: Gal(b1-3)GlcNAc(b1-3)GalNAc
Procedure, shortened: (§1)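 The Consortium for Functional Glycomics database supplied 3228 glycan arrays, of which those lacking an available protein sequence were dropped. The binding signal, a within-array Z-score, was averaged across arrays of the same protein sequence and across linkers. Negative scores can be read as non-binding.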

[2] = target: Gal(b1-3)GlcNAc(b1-6)Gal(b1-4)GlcNAc
Procedure, shortened: as §1

[3] = target: Gal(b1-3)GlcNAc(b1-6)GalNAc
Procedure, shortened: as §1

Gal(b1-3)GlcNAc6S = target: Gal(b1-3)GlcNAc6S
Procedure, shortened: as §1

[4] = target: Gal(b1-3)[Fuc(a1-4)]GlcNAc
Procedure, shortened: as §1

[5] = target: Gal(b1-3)[Fuc(a1-4)]GlcNAc(b1-2)Man(a1-3)[Gal(b1-3)[Fuc(a1-4)]GlcNAc(b1-2)Man(a1-6)]Man(b1-4)GlcNAc(b1-4)[Fuc(a1-6)]GlcNAc
Procedure, shortened: as §1

[6] = target: Gal(b1-3)[Fuc(a1-4)]GlcNAc(b1-3)Gal(b1-3)[Fuc(a1-4)]GlcNAc
Procedure, shortened: as §1

[7] = target: Gal(b1-3)[Fuc(a1-4)]GlcNAc(b1-3)Gal(b1-4)GlcNAc
Procedure, shortened: as §1

[8] = target: Gal(b1-3)[Fuc(a1-4)]GlcNAc(b1-3)Gal(b1-4)[Fuc(a1-3)]GlcNAc
Procedure, shortened: as §1

[9] = target: Gal(b1-3)[Fuc(a1-4)]GlcNAc(b1-6)GalNAc
Procedure, shortened: as §1

[10] = target: Gal(b1-3)[GlcNAc(b1-6)]GalNAc
Procedure, shortened: as §1

[11] = target: Gal(b1-3)[Neu5Ac(a2-6)]GalNAc
Procedure, shortened: as §1

[12] = target: Gal(b1-3)[Neu5Ac(a2-6)]GlcNAc(b1-4)Gal(b1-4)Glc
Procedure, shortened: as §1

[13] = target: Gal(b1-3)[Neu5Ac(a2-6)]GlcNAc(b1-6)Gal(b1-4)Glc
Procedure, shortened: as §1

[14] = target: Gal(b1-3)[Neu5Ac(b2-6)]GalNAc
Procedure, shortened: as §1

Gal(b1-4)Gal = target: Gal(b1-4)Gal
Procedure, shortened: as §1

[15] = target: Gal(b1-4)GalNAc(a1-3)[Fuc(a1-2)]Gal(b1-4)GlcNAc
Procedure, shortened: as §1

[16] = target: Gal(b1-4)GalNAc(b1-3)[Fuc(a1-2)]Gal(b1-4)GlcNAc
Procedure, shortened: as §1

Gal(b1-4)Glc = target: Gal(b1-4)Glc
Procedure, shortened: as §1

Gal(b1-4)Glc6S = target: Gal(b1-4)Glc6S
Procedure, shortened: as §1

Gal(b1-4)GlcNAc = target: Gal(b1-4)GlcNAc
Procedure, shortened: as §1

[17] = target: Gal(b1-4)GlcNAc(a1-6)Gal(b1-4)GlcNAc
Procedure, shortened: as §1

Gal(b1-4)GlcNAc(b1-2)Man = target: Gal(b1-4)GlcNAc(b1-2)Man
Procedure, shortened: as §1

[18] = target: Gal(b1-4)GlcNAc(b1-2)Man(a1-3)Man(b1-4)GlcNAc(b1-4)GlcNAc
Procedure, shortened: as §1

[19] = target: Gal(b1-4)GlcNAc(b1-2)Man(a1-3)[Gal(b1-4)GlcNAc(b1-2)Man(a1-6)]Man(b1-4)GlcNAc(b1-4)GlcNAc
Procedure, shortened: as §1

[20] = target: Gal(b1-4)GlcNAc(b1-2)Man(a1-3)[Gal(b1-4)GlcNAc(b1-2)Man(a1-6)]Man(b1-4)GlcNAc(b1-4)[Fuc(a1-6)]GlcNAc
Procedure, shortened: as §1

[21] = target: Gal(b1-4)GlcNAc(b1-2)Man(a1-3)[Gal(b1-4)GlcNAc(b1-2)][GlcNAc(b1-4)]Man(b1-4)GlcNAc(b1-4)GlcNAc
Procedure, shortened: as §1

[22] = target: Gal(b1-4)GlcNAc(b1-2)Man(a1-3)[GlcNAc(b1-2)Man(a1-6)]Man(b1-4)GlcNAc(b1-4)GlcNAc
Procedure, shortened: as §1

[23] = target: Gal(b1-4)GlcNAc(b1-2)Man(a1-3)[Man(a1-6)]Man(b1-4)GlcNAc(b1-4)GlcNAc
Procedure, shortened: as §1

[24] = target: Gal(b1-4)GlcNAc(b1-2)Man(a1-6)Man(b1-4)GlcNAc(b1-4)GlcNAc
Procedure, shortened: as §1

B1: StcE (Escherichia coli), O82882.2 (protein)
chain: ADNNSAIYFNTSQPINDLQGSLAAEVKFAQSQILPAHPKEGDSQPHLTSLRKSLLLVRPVKADDKTPVQVEARDDNNKILGTLTLYPPSSLPDTIYHLDGVPEGGIDFTPHNGTKKIINTVAEVNKLSDASGSSIHSHLTNNALVEIHTANGRWVRDIYLPQGPDLEGKMVRFVSSAGYSSTVFYGDRKVTLSVGNTLLFKYVNGQWFRSGELENNRITYAQHIWSAELPAHWIVPGLNLVIKQGNLSGRLNDIKIGAPGELLLHTIDIGMLTTPRDRFDFAKDKEAHREYFQTIPVSRMIVNNYAPLHLKEVMLPTGELLTDMDPGNGGWHSGTMRQRIGKELVSHGIDNANYGLNSTAGLGENSHPYVVAQLAAHNSRGNYANGIQVHGGSGGGGIVTLDSTLGNEFSHEVGHNYGLGHYVDGFKGSVHRSAENNNSTWGWDGDKKRFIPNFYPSQTNEKSCLNNQCQEPFDGHKFGFDAMAGGSPFSAANRFTMYTPNSSAIIQRFFENKAVFDSRSSTGFSKWNADTQEMEPYEHTIDRAEQITASVNELSESKMAELMAEYAVVKVHMWNGNWTRNIYIPTASADNRGSILTINHEAGYNSYLFINGDEKVVSQGYKKSFVSDGQFWKERDVVDTREARKPEQFGVPVTTLVGYYDPEGTLSSYIYPAMYGAYGFTYSDDSQNLSDNDCQLQVDTKEGQLRFRLANHRANNTVMNKFHINVPTESQPTQATLVCNNKILDTKSLTPAPEGLTYTVNGQALPAKENEGCIVSVNSGKRYCLPVGQRSGYSLPDWIVGQEVYVDSGAKAKVLLSDWDNLSYNRIGEFVGNVNPADMKKVKAWNGQYLDFSKPRSMRVVYK
[1]
  glycan array binding signal (z-score): 0.314
[2]
  glycan array binding signal (z-score): -0.141
[3]
  glycan array binding signal (z-score): -0.165
Gal(b1-3)GlcNAc6S
  glycan array binding signal (z-score): -0.103
[4]
  glycan array binding signal (z-score): 1.36
[5]
  glycan array binding signal (z-score): 4.66
[6]
  glycan array binding signal (z-score): 0.458
[7]
  glycan array binding signal (z-score): -0.156
[8]
  glycan array binding signal (z-score): -0.129
[9]
  glycan array binding signal (z-score): -0.007
[10]
  glycan array binding signal (z-score): -0.217
[11]
  glycan array binding signal (z-score): -0.226
[12]
  glycan array binding signal (z-score): 0.194
[13]
  glycan array binding signal (z-score): -0.176
[14]
  glycan array binding signal (z-score): -0.443
Gal(b1-4)Gal
  glycan array binding signal (z-score): -0.063
[15]
  glycan array binding signal (z-score): 0.123
[16]
  glycan array binding signal (z-score): -0.151
Gal(b1-4)Glc
  glycan array binding signal (z-score): -0.031
Gal(b1-4)Glc6S
  glycan array binding signal (z-score): -0.148
Gal(b1-4)GlcNAc
  glycan array binding signal (z-score): -0.057
[17]
  glycan array binding signal (z-score): -0.153
Gal(b1-4)GlcNAc(b1-2)Man
  glycan array binding signal (z-score): -0.167
[18]
  glycan array binding signal (z-score): -0.115
[19]
  glycan array binding signal (z-score): -0.173
[20]
  glycan array binding signal (z-score): -0.164
[21]
  glycan array binding signal (z-score): -0.145
[22]
  glycan array binding signal (z-score): -0.172
[23]
  glycan array binding signal (z-score): 0.979
[24]
  glycan array binding signal (z-score): -0.131
